Test results as given in PMC4336329 (PLoS ONE, 2015).
The whole screen tested about 310,000 compounds, of which about 2,200 (0.71%) showed an effect of 50% or more. The effect is printed as a negative number. The list shows a part of the results.

Target: human ether-à-go-go-related gene (hERG) potassium channel (human, UniProt Q12809)
Experiment: primary screen, population patch clamp on CHO cells stably expressing hERG

Chain of human ether-à-go-go-related gene (hERG) potassium channel (Q12809 whole entry, looked up): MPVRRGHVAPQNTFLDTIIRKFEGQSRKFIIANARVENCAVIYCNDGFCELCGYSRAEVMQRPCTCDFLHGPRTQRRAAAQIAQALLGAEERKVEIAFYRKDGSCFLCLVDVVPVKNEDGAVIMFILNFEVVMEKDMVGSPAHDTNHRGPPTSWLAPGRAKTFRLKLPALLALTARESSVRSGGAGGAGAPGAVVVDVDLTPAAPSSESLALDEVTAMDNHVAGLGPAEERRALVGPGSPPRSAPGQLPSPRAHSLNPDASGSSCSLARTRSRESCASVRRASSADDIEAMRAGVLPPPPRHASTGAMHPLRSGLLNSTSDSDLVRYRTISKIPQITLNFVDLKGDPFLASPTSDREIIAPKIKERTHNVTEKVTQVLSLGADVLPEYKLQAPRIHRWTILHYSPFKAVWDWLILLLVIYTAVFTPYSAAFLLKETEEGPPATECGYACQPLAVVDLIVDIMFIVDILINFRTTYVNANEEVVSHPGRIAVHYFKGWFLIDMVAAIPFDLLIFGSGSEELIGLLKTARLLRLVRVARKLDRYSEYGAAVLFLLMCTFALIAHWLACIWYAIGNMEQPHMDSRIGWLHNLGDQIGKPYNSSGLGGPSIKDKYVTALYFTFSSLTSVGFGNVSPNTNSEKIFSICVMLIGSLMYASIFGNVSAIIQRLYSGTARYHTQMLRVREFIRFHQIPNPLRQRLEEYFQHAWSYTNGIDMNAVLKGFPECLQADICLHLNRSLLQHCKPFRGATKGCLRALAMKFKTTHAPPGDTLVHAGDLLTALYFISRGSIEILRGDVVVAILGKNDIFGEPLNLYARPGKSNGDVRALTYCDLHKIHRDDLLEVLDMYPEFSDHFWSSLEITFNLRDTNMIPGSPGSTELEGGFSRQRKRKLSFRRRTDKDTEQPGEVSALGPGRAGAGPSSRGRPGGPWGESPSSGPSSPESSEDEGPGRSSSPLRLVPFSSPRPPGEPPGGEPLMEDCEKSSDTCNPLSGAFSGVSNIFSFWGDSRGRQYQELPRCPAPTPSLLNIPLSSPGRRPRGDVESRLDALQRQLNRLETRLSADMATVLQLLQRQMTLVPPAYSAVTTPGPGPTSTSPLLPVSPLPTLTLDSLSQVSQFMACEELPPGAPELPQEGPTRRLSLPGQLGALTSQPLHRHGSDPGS

Row | Compound | hERG current change (%, negative = inhibition) at 1uM [%]
1 | Cc1nc(S(=O)(=O)c2cccc(Cl)c2)nc2c1CCC2 | 7
2 | Cc1ccc(S(=O)(=O)Nc2cccc(NC(=O)CN3CCCCC3)c2)cc1.O=C(O)C(=O)O | 3.96
3 | O=C1c2ccc([N+](=O)[O-])cc2C(=O)N1c1ccc(Cl)cn1 | 17.4
4 | Cc1cc(-c2ccc(S(=O)(=O)N(C)Cc3ccccc3)cc2)on1 | 14.6
5 | COc1ccc(Oc2c(Cl)cnn(-c3ccccc3)c2=O)cc1 | -9.32
6 | O=C(Cn1cccn1)N1CCCC(N2CCN(Cc3ccc4c(c3)OCO4)CC2)C1 (centres unmarked) | 15.5
7 | Cc1csc(=O)n1CC(=O)Nc1ccc(Cl)cc1F | 1.89
8 | CCCCc1cc2c(s1)CCCC/C2=N/O | 2.41
9 | O=C(c1ccc(F)cc1)n1cc(C(=S)N2CCOCC2)c2ccccc21 | 13.3
10 | CC1CCN(c2ccc3nnc(CCC(=O)Nc4ccc(F)c(F)c4)n3n2)CC1 | 7.9
11 | CC(C)n1nc(C(=O)Nc2nc3ccccc3[nH]2)c2ccccc2c1=O | 7.7
12 | CNC(=S)N(CCc1ccccc1)Cc1cc2cc(OC)c(OC)cc2[nH]c1=O | 0.771
13 | O=C([O-])CC1S/C(=N/N=C/C=C/c2ccccc2)NC1=O.[Na+] (centres unmarked) | 8.33
14 | O=C(Nc1ccccc1Cl)N1C2CCC1CC(O)(c1cccnc1)C2 (centres unmarked) | -8.38
15 | O=C1N=c2ccccc2=C1c1sc(NS(=O)(=O)c2ccccc2)nc1O | 7.09
16 | C/C(=N\NC(=O)c1ccc(CSc2nc(C)cc(C)n2)cc1)c1ccco1 | -6.01
17 | CCc1nnc(NC(=O)C2Cc3ccccc3CN2S(=O)(=O)c2ccc(C)cc2)s1 (centres unmarked) | 16.1
18 | Cc1cc(C)cc(OCC(=O)OCC(=O)NCc2cccs2)c1 | 11.9
19 | COC(=O)C1=C(NC(=O)COc2ccc(Cl)cc2Cl)CCS1 | 13.1
20 | O=C(Nc1ccccc1)Nc1ccccn1 | 12.4
21 | CSc1nsc(SCC(=O)NCc2ccc(C)cc2)n1 | 12.7
22 | CN(C)S(=O)(=O)c1cccc(C(=O)NC2CCCc3ccccc32)c1 (centres unmarked) | 8.67
23 | COc1ccc(C=C(C#N)C#N)c(CSc2ccccn2)c1 | 11.1

Row | Compound | hERG current change (%, negative = inhibition) at 1uM [%]
24 | CCOc1ccc(S(=O)(=O)N2CCN=C2c2ccccc2)c(C)c1C | -0.657
25 | Cc1ccc(NC(=O)CSc2nnc3c(n2)[nH]c2ccccc23)cc1 | 8.92
26 | CC(C)OC(=O)c1ccc(S(N)(=O)=O)o1 | 5.04
27 | CCc1ccc(NC2=NCC(=O)N2c2ccc3c(c2)OCCO3)cc1 | 9.34
28 | Cc1cc(C)c2c(N=CN(C)C)c(C(=O)N3CCN(c4ncccn4)CC3)sc2n1 | 3.59
29 | CC12CCC(C(=O)Nc3ccc(Cl)cc3)([C@H](Br)C1=O)C2(C)C (some centres unmarked) | 7.5
30 | CNc1ccccc1C(C)(C)c1cc(-c2cccc(OC)c2)no1 | 8.57
31 | O=C(Nc1ccc(N2CCOCC2)cc1)C1CC1 | 14
32 | O=C(NC1CCCCC1)C(=O)c1c(-c2ccccc2)[nH]c2ccccc12 | 9.08
33 | O=C(Nc1ccccc1Cl)N1CCN(c2ccc3nncn3n2)CC1 | 1.61
34 | CCOP(=O)(Cc1ccc(C(C)(C)CC(C)=O)o1)OCC | 9.28
35 | O=C(O)CSc1nnc(COc2ccc(Br)cc2)n1-c1ccccc1 | 9.98
36 | CCN(CC)C(=O)c1nc[nH]c1C(=O)N(C)Cc1ccccc1 | 13.7
37 | CC1(c2ccccc2)NC(=O)N(CC(=O)NC(=O)NCc2ccco2)C1=O (centres unmarked) | 10.3
38 | COc1ccc(NC(=O)CNC(=O)C2CCCCC2)cc1 | 11.8
39 | CC(=O)Oc1ccc(C(=O)NCc2ccc3c(c2)OCO3)cc1 | 9.9
40 | COCCn1c(SC(C)C(=O)Nc2ccc(N3CCOCC3)cc2)nnc1-c1ccncc1 (centres unmarked) | 6.75
41 | O=C(COC(=O)c1ccc(S(=O)(=O)N2CCCC2)cc1)Nc1cccc(Cl)c1 | 4.86
42 | C/C(CC(=O)Nc1ccc(Cl)cc1C(F)(F)F)=N\NC(N)=S | 12.1
43 | Clc1ccc(Sc2cc(N3CCOCC3)nc(-c3ccccc3)n2)cc1 | 10.5
44 | CC1CCCN(c2ccc(C(=O)OCC(=O)N3c4ccccc4Sc4ccccc43)cc2[N+](=O)[O-])C1 (centres unmarked) | 8.29
45 | Cc1nc([N+](=O)[O-])cn1-c1ccc(N)cc1 | 6.44
46 | C=CCc1cccc2cc(NC(C)=O)c(=O)oc12 | -4.86

Row | Compound | hERG current change (%, negative = inhibition) at 1uM [%]
47 | Nc1cccc(CP(=O)(c2ccccc2)c2ccccc2)c1 | 17.1
48 | Cc1ccc(S(=O)(=O)Nc2c(C)n(C)n(-c3ccccc3)c2=O)cc1 | 9.71
49 | COc1cc(/C=N/NC(=S)N/N=C/c2cc(OC)c(OC)c(OC)c2)cc(OC)c1OC | -3.01
50 | C/C=C/Cn1cccc(C(=O)Nc2ccc(OC)cc2)c1=O | 3.63
51 | CN(C)/C(CN1CCN(C=O)CC1)=C1\N=C(c2ccccc2)OC1=O | -14.8
52 | CCCSC(=S)c1c(C)[nH]n(-c2ccccc2)c1=O | 13.3
53 | Cc1ccc(OCc2cc(C(=O)NC(C)Cc3cccnc3)no2)cc1C (centres unmarked) | -34
54 | Cn1c(SCC#N)nc2ccccc2c1=O | 10.7
55 | N/C(=N\OC(=O)CCC1CCCC1)c1ccc(Cl)cc1 | 15.3
56 | CC1(C)Cc2ccccc2-c2[nH]c(=S)[nH]c(=O)c21 | 11.8
57 | C=C(C)CSC1=C(C#N)C(c2ccsc2)CC(=O)N1 (centres unmarked) | 0.848
58 | CCOc1ccc(S(=O)(=O)NCCC(=O)Nc2ncccc2C)cc1 | 10.5
59 | Cc1csc(N)n1 | 10.7
60 | Fc1ccc(-n2cc(CNCCc3ccncc3)c(-c3ccccc3Cl)n2)cc1 | -3.18
61 | C=CCNC(=O)NC(=O)COC(=O)COc1ccc(Br)cc1F | 7.39
62 | CCNC(=O)Cn1cc(C#N)c2ccccc21 | 0.917
63 | COc1ccc(-n2nnc3c(=O)n(Cc4cccc(C)c4)cnc32)cc1 | -12.9
64 | O=C(NC1(C(F)(F)F)N=C(c2ccccc2)NC1=O)c1ccc(Cl)cc1Cl (centres unmarked) | -10.2
65 | CCn1c(=O)c2ccccc2n(Cc2cccc([N+](=O)[O-])c2)c1=O | 16.4
66 | CCOC(=O)C1=C(C)NC(=O)NC1c1ccc2c(c1)OCCO2 (centres unmarked) | 11.1
67 | Cc1ccc(S(=O)(=O)CCC(=O)NCCc2ccc(Cl)cc2)cc1 | 5.75
68 | COc1cccc(CN(C(=O)CN2C(=O)c3ccccc3S2(=O)=O)C(C(=O)NCC2CCCO2)c2ccco2)c1 (centres unmarked) | -50.1
69 | CCOC(=O)c1cc2c(nc1NC(=S)Nc1ccccc1)CC(C)(C)OC2 | 6.85

Row | Compound | hERG current change (%, negative = inhibition) at 1uM [%]
70 | O=C1N(Cc2cccnc2)C[C@@H]2C[C@@H](c3cccc(Oc4ccccc4)c3)N3CCC[C@@]123 | -4.79
71 | Cc1cc(C)n2nc(SCC#N)nc2n1 | -7.27
72 | O=C(Cn1cc2c(n1)CCCC2)NCCCN1CCCC1 | 8.91
73 | Cc1nn(CCO)c2c1C(=O)CCC2 | 9.11
74 | Cc1nn2c(N3CCN(CCO)CC3)c3c(nc2c1-c1ccccc1)CCCC3 | 5.22
75 | COc1cnn(-c2ccc(C)cc2)c(=O)c1Br | 10.8
76 | O=C(COC(=O)/C=C/c1ccc(Br)o1)NC1CCCCC1 | 7.52
77 | COc1cccc(NC(=O)/C=C/c2ccc(S(=O)(=O)N3CCOCC3)cc2)c1 | 8.02
78 | O=C(CN(C(=O)CNS(=O)(=O)c1ccccc1)c1ccc2c(c1)OCCO2)NCc1ccco1 | 3.62
79 | COc1cccc(/C=N/NC(=O)CCc2c(C)n[nH]c2C)c1O | 4.94
80 | CC(NC(=O)c1ccc(N)cc1)c1ccccc1 (centres unmarked) | 4.39
81 | COc1ccc(CCNC(=O)CCCn2ncn3c(cc4occc43)c2=O)c(OC)c1 | 10.5
82 | CC(C)NC(=O)COC(=O)c1cc(=O)[nH]c2ccccc12 | 9.93
83 | CC(=O)c1cccc(NC(=O)CCc2nnc3ccc(NCc4ccco4)nn23)c1 | 17.4
84 | O=C(CSCc1ccc(Cl)cc1)NCCSCc1ccco1 | 7.86
85 | Cc1cccc(OCC(=O)N/N=C/c2cc([N+](=O)[O-])ccc2N2CCOCC2)c1 | -1.6
86 | Cc1c(C(=O)N2CCCCC2)sc(NC(=O)C23CC4CC(CC(C4)C2)C3)c1C#N | 5.06
87 | Cc1cc(C)cc(NC(=O)COC(=O)CN=C2NS(=O)(=O)c3ccccc32)c1 | 14.4
88 | Cc1c(C(=O)N2CCCCC2)c(S(=O)(=O)N2CCc3ccccc32)c(C)n1C | 14.7
89 | CC1(C)CC(=O)C(CC(=O)Nc2ccc(S(N)(=O)=O)cc2)=C(O)C1 | 5.31
90 | CN(C)C(=O)N1CCN(C(=O)N(C)C)CC1 | 12.3
91 | CC(C)(C)c1cc2ncnc(N3CCCCC3)c2s1 | 14.6
92 | COc1ccc2ccccc2c1C1CC(=O)N2CN(Cc3ccco3)CSC2=C1C#N (centres unmarked) | 14.1
